Data on 57 compounds can be found in PubChem BioAssay AID1963576 (National Center for Advancing Translational Sciences (NCATS), 2024).

Hit rate of the full screen: of about 46,000 compounds, about 60 (0.1%) were called active. Inconclusive results (about 3%) are left out. Calls follow the shape of the dose curve; as a rule, active = well fitted inhibition curve with a large enough effect; inconclusive = small, poorly fitted or top-dose-only effect; inactive = no such curve, though single readings can be large or run the other way. Some of the results follow.

The assay can be described thus: Primary qHTS assay for Inhibitors of ovarian cancer metastasis using an organotypic tumor microenvironment (TME) model. Also: nearly all actives have a fitted effect of over 65% in size.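 As to activity change, negative = inhibition: plate controls were DMSO wells for no effect and tomatine positive control wells for full effect.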 The conditions noted are these: SKOV3ip1-GFP adhesion/invasion on 3D omental model, fluorescence; series mostly up to 45.8 µM; activity change, negative = inhibition: at the top concentration. A digest of the protocol: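 Adhesion/invasion was scored as fixed GFP-labeled SKOV3ip1 cell counts (488/509 nm), normalized to DMSO and tomatine controls. Cancer cells in serum-free medium, with four compound doses (0.36-46 umol/L), sat 2 hr at RT then 16 hr at 37 C on a 48 hr fibroblast/mesothelial/ECM culture.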
`COc1ccc(NC(=O)c2ccco2)cc1NC(=O)c1ccc(C#N)cc1F`: the “activity change, negative = inhibition” value is inactive: 0.146%.
On the same count and under the same terms, the figure for `CCCNC(=O)c1cnn(-c2ccc(C)c(C)c2)c1C1CCN(C(=O)OC(C)(C)C)CC1` is inactive: -5.51%.
As for `O=C(NCCc1ccccc1)C1CCN(c2nc3ccccc3nc2C(F)(F)F)CC1`, the result was inactive.
Regarding `COCCn1c(SCC(=O)c2ccc(C)cc2)nc2cc(C(=O)NC3CCCC3)ccc2c1=O`, the compound was classed as inactive.
`COc1ccccc1N1CCN(c2ncnc3c2cnn3-c2ccc(C)cc2)CC1`: the “activity change, negative = inhibition” value was inactive: 3.95%.
On to `CCCCCSc1nnc2c(n1)[nH]c1c(C)cccc12`, for which the “activity change, negative = inhibition” value is inactive: 0.0556%.
For `Cc1cc(C)cc(N2CCn3c2nc2c3c(=O)n(Cc3c(F)cccc3Cl)c(=O)n2C)c1`, the “activity change, negative = inhibition” value was inactive: 6.58%.
Same read-out and setting: then `O=S(=O)(NCC(c1ccco1)N1CCN(c2ccccc2)CC1)c1cc(F)ccc1F` (configuration not stated), with inactive: 10.7%.
Turning to `CCc1ccc(/C=C(/C#N)c2nc(-c3ccc(C)cc3)cs2)cc1`, the outcome was inactive.
Take `CCCOc1ccc(C(=O)N2CCC(c3nc4ccccc4s3)CC2)cc1`: the “activity change, negative = inhibition” value was inactive: 11.4%.
For `O=C(C1CC1)N1CCc2cc(Br)cc(S(=O)(=O)Nc3ccc(F)c(F)c3)c21`, the “activity change, negative = inhibition” value was inactive: 34.5%.
Same read-out and setting: the figure for `CC(C)(C)OC(=O)N1CCC(c2c(C(=O)NCCN3CCOCC3)cnn2-c2cccc(Cl)c2)CC1` is inactive: -7.57%.
Take `CCc1ccc2oc(-c3ccc(C)c(NC(=O)Cc4ccccc4)c3)nc2c1`: the result was inactive.
`O=C(Cn1c(=O)c(CNc2ccccc2)cc2cc3c(cc21)OCCO3)Nc1ccccc1Cl`: the “activity change, negative = inhibition” value was inactive: -6.51%.
The same measure, in the same setting: then `Cc1nn(C)c2c1c(C(F)(F)F)cc(=O)n2Cc1ccc(Br)cc1F`, with inactive: -27.8%.
In the case of `O=c1c(S(=O)(=O)c2ccccc2)cn(Cc2ccccc2)c2cc(N3CCCC3)c(F)cc12`, the “activity change, negative = inhibition” value is inactive: 5.83%.
Regarding `CCOc1ccc(N(Cc2ccccc2)C(=O)c2nc(SC)ncc2Cl)cc1`, the “activity change, negative = inhibition” value is inactive: -2.82%.
On the same count and under the same terms, then `Cn1c(=O)c2c(nc(CN3CCN(c4ccccc4F)CC3)n2Cc2ccc(F)cc2)n(C)c1=O`, with inactive: 0.406%; and `COc1ccc(OC)c(C2CC(=O)Nc3c2c(=O)[nH]c2nc4ccccc4n32)c1` (configuration not stated), with inactive: 12.5%; and `N#Cc1ccc(NC(=O)COCc2cc(-c3ccco3)on2)cc1`, with inactive: -3.27%.
The same measure, in the same setting: the figure for `CCOC(=O)C1CCN(CCC(=O)Nc2ccccc2OC)CC1` is inactive: -5.02%; for `Cc1cc(C)cc(C(=O)NCCc2sc(-c3ccc(F)cc3)nc2C)c1` it is inactive: 10.2%.
The same measure, in the same setting: then `Cc1cccc(NC(=O)CSc2nc3n[nH]c(C)c3c(=N)n2-c2cccc(Cl)c2)c1`, with inactive: 6.97%; and `Cc1ccc(Cl)cc1NC(=O)Cn1c(=O)n(C(C)C)c(=O)c2oc3ccccc3c21`, with inactive: 1.93%.
On to `Cc1nn2c(=O)cc(COC(=O)c3cccc(NC(=O)c4ccc(F)cc4)c3)nc2s1`, for which the call was inactive.
`Cc1cccc(C(C)C)c1NC(=O)c1ccc2c(c1)CCN2S(C)(=O)=O`: the “activity change, negative = inhibition” value is inactive: 1.55%.
Same read-out and setting: the figure for `Cc1cccc(Nc2nnc(-c3ccc(C)c(S(=O)(=O)N4CCN(C)CC4)c3)c3ccccc23)c1` is inactive: -2.42%.
Same read-out and setting: then `CC(=O)Nc1cccc(NC(=O)CSc2ccc(-c3sc(-c4ccccc4)nc3C)nn2)c1`, with inactive: -3.32%.
The same measure, in the same setting: the figure for `O=C(O)CCc1ccc(-c2ccccc2)n1-c1ccc(C(=O)O)cc1` is inactive: 2.85%.
For the compound `Cc1ccc(-n2nc(-c3ccccc3)c3cnc4cc5c(cc4c32)OCO5)cc1C`, the compound was classed as inactive.
For `CCn1c(CN2CCC(C)CC2)nc2cc(NC(=O)c3ccc([N+](=O)[O-])cc3)ccc21`, the “activity change, negative = inhibition” value is inactive: -18.3%.
Still for that read-out and setting: then `CC(C)CCNC(=O)C(=O)Nc1c2c(nn1-c1ccc(Cl)cc1)CSC2`, with inactive: -11.4%.
Same read-out and setting: the figure for `COc1ccc(-c2cc(C(=O)NCCc3ccc(OC)c(OC)c3)c3c(-c4ccc(F)cc4)[nH]nc3n2)cc1` is inactive: 4.2%.
Same read-out and setting: then `Cc1cc(C)n(-c2nc(C)c(C)c(=O)n2CC(=O)Nc2cccc([N+](=O)[O-])c2)n1`, with inactive: 13.2%.
As for `CCOC(=O)c1ccc(NC(=O)Cn2c3ncccc3c(=O)n2-c2ccc(C)c(C)c2)cc1`, the “activity change, negative = inhibition” value is inactive: 0.287%.
Consider `Cc1ccc(NC(=O)c2ccc3snnc3c2)cc1C`, for which the result was inactive.
Take `COc1ccccc1NC(=O)C1CCCN(c2ncnc3onc(-c4ccc(F)cc4)c23)C1` (configuration not stated): the “activity change, negative = inhibition” value was inactive: -0.673%.
Consider `CCC(C)NC(=O)c1c(C)oc2nc(C)nc(N3CCOCC3)c12` (configuration not stated), for which the “activity change, negative = inhibition” value is inactive: 4.9%.
On the same count and under the same terms, the figure for `CCOC(=O)C(C)Sc1nc(-c2ccccc2)ccc1C#N` (configuration not stated) is inactive: -1.16%; for `COc1cccc(NC(=O)C2CCN(S(=O)(=O)c3ccc4[nH]c5c(c4c3)CCCCC5)CC2)c1` it is inactive: 1.62%; for `COC(=O)c1ccccc1NC(=O)c1nn(-c2ccc(OC)cc2)c(=O)c2c1c1ccccc1n2C` it is inactive: -14.5%.
Regarding `COc1cccc(NC(=O)c2oc3ccc(S(=O)(=O)N4CCCCCC4)cc3c2C)c1`, the “activity change, negative = inhibition” value was inactive: 18.8%.
Still for that read-out and setting: the figure for `CCOc1ccc(S(=O)(=O)N2CCC(c3ccncc3)CC2)cc1` is inactive: 2.85%; for `Cc1cc(C)n2nc(CNS(=O)(=O)c3ccccc3)nc2n1` it is inactive: 2.26%.
Take `CCOC(=O)c1ccccc1NC(=O)COC(=O)CC(C)(C)CC1=NS(=O)(=O)c2ccccc2N1`: the outcome was inactive.
Consider `COc1ccc(S(=O)(=O)NCC(c2ccc(N(C)C)cc2)N2CCc3ccccc32)cc1F` (configuration not stated), for which the “activity change, negative = inhibition” value was inactive: -15.3%.
The same measure, in the same setting: the figure for `O=C(O)c1c(Cl)c(Cl)c(Cl)c(Cl)c1-c1c2cc(I)c(=O)c(I)c-2oc2c(I)c(O)c(I)cc12` is inactive: -4.96%.
Still for that read-out and setting: then `CCCNC(=O)N1[C@H](c2cccs2)[C@@H](C)C(=O)[C@@H](C)[C@@H]1c1cccs1`, with inactive: -0.999%; and `COc1cccc(N2CCN(c3ncnc4c3c(-c3ccccc3)cn4-c3cccc(C(F)(F)F)c3)CC2)c1`, with inactive: 5.2%.
In the case of `CCN(CC)C(=O)Cn1c(=O)n(CCc2ccccc2)c(=O)c2ccccc21`, the call was inactive.
Consider `Cc1cc(Nc2ccc(Br)c(C)c2)n2nc(-c3ccco3)nc2n1`, for which the “activity change, negative = inhibition” value is inactive: 6.21%.
Same read-out and setting: the figure for `CN[C@H](CC(C)C)C(=O)N[C@H]1C(=O)N[C@@H](CC(N)=O)C(=O)N[C@@H]2C(=O)N[C@H]3C(=O)N[C@H](C(=O)N[C@H](C(=O)O)c4cc(O)cc(O)c4-c4cc3ccc4O)[C@H](O)c3ccc(c(Cl)c3)Oc3cc2cc(c3O[C@@H]2O[C@H](CO)[C@@H](O)[C@H](O)[C@@H]2O[C@H]2C[C@](C)(N)[C@H](O)[C@H](C)O2)Oc2ccc(cc2Cl)[C@H]1O` is inactive: -0.904%; for `COc1ccc(OC)c(NC(=O)N2CC3CCCN3c3ccccc32)c1` (configuration not stated) it is inactive: 6.4%.
As to `CCOC(=O)c1cccc(NC(=O)N2CC=C(c3c[nH]c4ccccc34)CC2)c1`, the outcome was inactive.
As to `COCCNc1oc(-c2ccc(OC)cc2)nc1C#N`, the “activity change, negative = inhibition” value is inactive: 32.9%.
The same measure, in the same setting: then `CC(=O)c1ccc(NC(=O)CC2Oc3ccc(C)cc3NC2=O)cc1` (configuration not stated), with inactive: -1.25%.
Consider `CCOC(=O)Cc1c(C(=O)OCC)nnc2c(-c3ccccc3)c(C)nn12`, for which the call was inactive.
